The whole screen tested about 310,000 compounds, of which about 2,200 (0.71%) showed an effect of 50% or more. Effects have a minus sign here. The list shows a part of the results.

The source of these data is PMC4336329 (PLoS ONE, 2015).

The target of this experiment is human ether-à-go-go-related gene (hERG) potassium channel (human, UniProt Q12809). Kind of experiment: primary screen, population patch clamp on CHO cells stably expressing hERG.
Sequence of human ether-à-go-go-related gene (hERG) potassium channel (Q12809 whole entry, looked up): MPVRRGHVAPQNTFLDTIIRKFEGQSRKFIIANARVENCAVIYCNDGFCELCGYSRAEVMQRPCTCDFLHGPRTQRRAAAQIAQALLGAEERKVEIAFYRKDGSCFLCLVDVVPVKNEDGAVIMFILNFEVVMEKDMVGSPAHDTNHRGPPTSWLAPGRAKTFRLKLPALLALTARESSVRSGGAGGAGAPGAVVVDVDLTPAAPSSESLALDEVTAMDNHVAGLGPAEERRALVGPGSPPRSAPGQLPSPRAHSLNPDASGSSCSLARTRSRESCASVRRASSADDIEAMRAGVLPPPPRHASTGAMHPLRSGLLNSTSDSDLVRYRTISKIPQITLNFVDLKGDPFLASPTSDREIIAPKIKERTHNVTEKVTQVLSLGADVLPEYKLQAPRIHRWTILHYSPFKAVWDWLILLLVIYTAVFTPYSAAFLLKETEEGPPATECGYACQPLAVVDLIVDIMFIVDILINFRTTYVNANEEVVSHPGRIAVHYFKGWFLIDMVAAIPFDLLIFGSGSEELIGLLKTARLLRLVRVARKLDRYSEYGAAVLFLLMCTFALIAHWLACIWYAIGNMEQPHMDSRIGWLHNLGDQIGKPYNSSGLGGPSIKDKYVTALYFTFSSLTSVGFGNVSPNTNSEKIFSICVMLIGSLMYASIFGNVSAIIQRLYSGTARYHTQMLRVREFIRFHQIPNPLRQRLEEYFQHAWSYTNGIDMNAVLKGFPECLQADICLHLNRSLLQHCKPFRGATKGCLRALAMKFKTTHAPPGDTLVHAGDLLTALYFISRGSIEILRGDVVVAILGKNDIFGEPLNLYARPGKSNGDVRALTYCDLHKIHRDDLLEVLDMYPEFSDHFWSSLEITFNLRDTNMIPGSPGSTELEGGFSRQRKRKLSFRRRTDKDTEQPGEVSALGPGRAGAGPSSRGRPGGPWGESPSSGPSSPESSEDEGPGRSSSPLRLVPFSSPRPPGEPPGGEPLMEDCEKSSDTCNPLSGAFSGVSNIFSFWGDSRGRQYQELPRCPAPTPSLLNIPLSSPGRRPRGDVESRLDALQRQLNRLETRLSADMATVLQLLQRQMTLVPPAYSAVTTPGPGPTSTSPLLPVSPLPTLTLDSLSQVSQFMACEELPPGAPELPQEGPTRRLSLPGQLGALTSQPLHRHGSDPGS
On to `Cc1ccc(Cl)cc1NC(=O)CCN1C(=O)C2C3CCC(C3)C2C1=O` (stereo not shown), for which the “hERG current change (%, negative = inhibition) at 1uM” value amounted to 7.91%.
The same measure for `N#CC[n+]1cc(-c2ccc(Cl)cc2)n2c1CCC2.[Cl-]`: 12.2%.
The same measure for `O=C(COc1ccc(Cl)cc1Cl)N/N=C/c1ccc[nH]1`: 3.54%.
The result for `CCCCNS(=O)(=O)c1ccc2nc(SCC(=O)Nc3sccc3C#N)[nH]c2c1` reads 7.37%; that for `CCCOc1ccc(OCCSc2nnc(N)s2)cc1`, 13.8%; that for `COc1ccc(/C=N/NC(=O)c2ccc(N(C)S(=O)(=O)c3ccccc3)cc2)cc1`, 10.6%.
Take `CN1C(C(=O)N2CCc3ccccc3C2)=CC(c2ccc(F)cc2)=NS1(=O)=O`: the “hERG current change (%, negative = inhibition) at 1uM” value is 9.61%.
As to `Nn1c(SCC(=O)Nc2ccccc2F)nc2ccccc2c1=O`, the “hERG current change (%, negative = inhibition) at 1uM” value was found to be 1.58%.
The result for `CCCc1cc(C(=O)Nc2sc(C)c(CC)c2C#N)no1` reads 12.5%; that for `CC(C)C(=O)NC(=S)Nc1ccccc1N1CCN(C(=O)c2ccc(Cl)cc2)CC1`, 0.0723%.
The same measure for `O=c1nc(-c2ccccc2Cl)c2cc(F)ccc2[nH]1`: 15.1%; for `COc1ccccc1CN1CCCC(CN(CCN(C)C)C(=O)C2CCCC2)C1` (stereo not shown): 9.78%; for `CCc1nc(NC(=O)Cc2csc(C)n2)sc1C(=O)OC`: 9.28%.
The result for `COC(=O)c1sccc1NC(=O)c1ccc(Cl)s1` reads -3.73%; that for `O=C(c1ccccc1)N1CCN(C(=S)NCCc2ccccc2)CC1`, -11.5%.
On to `O=C(NC1CCCCC1)C(c1ccc(F)cc1)N(C(=O)c1csnn1)C1CCCC1` (stereo not shown), for which the “hERG current change (%, negative = inhibition) at 1uM” value is recorded as 2.6%.
The result for `CCOC(=O)N1CCN(C(=O)c2ccc(N3CC4CC(C3)c3cccc(=O)n3C4)c(NC(=O)c3ccc(F)cc3)c2)CC1` (stereo not shown) reads 8.17%.
The same measure for `CS(=O)(=O)c1cnc2c(-c3ccc(F)cc3)cnn2c1N`: -0.312%; for `Oc1c(Br)cc(Br)cc1CNc1ccccn1`: 13.1%; for `CC(C)N=C1NN=C(c2cccs2)CS1`: 28.3%.
The same measure for `Cc1ccc(CCNC(=O)CC2Oc3ccc(C)cc3NC2=O)cc1` (stereo not shown): 9.29%; for `O=c1c2ccc([N+](=O)[O-])cc2ncn1CCOc1ccc(Cl)cc1`: -4.78%; for `CCc1sc(C(=O)N2CCN(S(C)(=O)=O)CC2)cc1Br`: 2.17%.
In the case of `Cc1nnc(NC(=O)c2ccc(S(=O)(=O)N3CCCCCC3)cc2)o1`, the “hERG current change (%, negative = inhibition) at 1uM” value was 3.18%.
The same measure for `CC(C)C(=O)Nc1ccc(O)c(-c2csc(N)n2)c1`: 14.3%.
